# Assay results taken from the supplement of paper PMC4723716.
# Whole data set: some 3,600 compounds, median “viability index relative to DMSO control” near 0.81, cut for the lowest 2% near 0.13. Some of the results follow.
# Test system: Plasmodium falciparum NF54 stage V gametocytes
# Experiment: viability index relative to DMSO control (fraction); higher = less gametocyte killing
# Details: 1.25 µM, incubation time: 72 h
# 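Further: 384-well serum-free SaLSSA: MitoTracker Red CMXRos staining with saponin lysis, high-content imaging, treated-well particle count divided by plate-mean count of DMSO wells.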
row,SMILES,viability index
1,CC1CC(C)CN(S(=O)(=O)c2ccc(C(=O)Nc3ccc(-c4nc5ccccc5o4)cc3)cc2)C1 (stereo not given),0.842
2,CCOC(=O)c1c(NC(=O)COc2ccccc2[N+](=O)[O-])sc(C(C)=O)c1C,0.76
3,CC1N=C2c3ccccc3N=C(SCc3ccc(F)cc3)N2C1=O (stereo not given),1.04
4,CCN(CC)CCNC(=O)c1cc(-c2cc3ccccc3s2)cc(-n2cnnn2)c1,0.952
5,Cc1ccc2c(Cl)c(C(=O)N3CC(C)OC(C)C3)sc2c1 (stereo not given),0.869
6,COc1cc(C2c3[nH]c4ccccc4c3C[C@H]3C(=O)N(CCc4ccccc4)CC(=O)N23)cc(OC)c1OC (stereo not given in full),0.767
7,COc1cc2c(cc1OC)C(=NN=C1NC(C)(C)Cc3ccccc31)NC(C)(C)C2,1
8,CCOC(=O)C1=CN(c2cc(C)ccc2C)C=C(C(=O)OCC)C1c1ccccc1OCC,0.698
9,CCN(Cc1ccccc1)c1ncnc2ccc(Br)cc12,1.06
10,COc1cc(C=C(C#N)c2nc3ccccc3[nH]2)ccc1OCc1ccc(C)cc1,0.615
11,O=C(Nc1ccccc1Cl)NC1(C(=O)NCC2CCCO2)CCCCC1 (stereo not given),0.891
12,COC(=O)c1sc2nc(CN3CCCC(C)C3)ccc2c1NC(=O)c1ccc(C)s1 (stereo not given),0.875
13,O=[N+]([O-])c1cccc(Cl)c1N1CCN(S(=O)(=O)Cc2ccccc2)CC1,1
14,Cc1cc(N2CCN(C3CCCCC3)CC2)n2c(nc3ccccc32)c1C#N,0.94
15,CNC(=O)NNC(=O)c1cccnc1,1.35
16,COc1ccc(C=NNc2nc3cc(Cl)ccc3[nH]2)cc1OC,0.735
17,CCC1CCCCN1C(=O)C1CC(=O)N(c2ccc(OC)cc2)C1c1ccc(OC)cc1 (stereo not given),0.798
18,CC[n+]1c(C=C2Sc3oc4ccccc4c3N2C)ccc2cc(C)ccc21,0.473
19,Cc1nc(N2CCCCC2)c2c(C)c(C(=O)N3CCN(c4cccc(Cl)c4)CC3)sc2n1,0.73
20,CC(NC(=O)c1cnn2c(C(F)(F)F)cc(-c3ccc(Br)cc3)nc12)c1ccccc1 (stereo not given),1.14
21,CCOC(=O)C1=C(c2ccccc2)N=c2sc(=Cc3cc(OC)c(OC)c(OC)c3)c(=O)n2C1c1c(OC)ccc2ccccc12 (stereo not given),0.623
22,CCOC(=O)c1ccc(OCC2c3cc(OC)c(OC)cc3CCN2C(=O)c2ccc([N+](=O)[O-])cc2)cc1 (stereo not given),0.921
23,CN(C)c1ccc(/C=C2\N=C(c3ccccc3F)OC2=O)cc1,0.896

row,SMILES,viability index
1,COCCNC(=S)N1CCN(S(=O)(=O)c2ccc([N+](=O)[O-])cc2)CC1,0.327
2,CCN(CC)CCNc1ccnc2cc3ccccc3cc12,0.435
3,CCN(CC)C(=O)N1CCN(c2ccc(Nc3ccnc4cc5ccccc5cc34)cc2)CC1,0.801
4,O=C(NNc1ccccc1F)C1CCC1,1.46
5,O=C(CSc1nc2ccccc2c(=O)n1CCCN1CCOCC1)Nc1cccc(S(=O)(=O)N2CCCCCC2)c1,0.969
6,Cc1cc(C)n(-c2ccc(NC(=O)C3CCN(Cc4ccncc4)CC3)cc2)n1,0.885
7,COc1ccc(NC(C)=C2C(=O)c3ccccc3C2=O)c(OC)c1,0.99
8,CC1(C)CC(=O)C2=C(C1)NC(=O)CC2c1ccc(C(C)(C)C)cc1 (stereo not given),0.92
9,Cc1cc(S(=O)(=O)NC(Cc2ccc([N+](=O)[O-])cc2)C(=O)O)c(Cl)cc1Cl (stereo not given),0.983
10,CCc1ccc(CN2CCC(O)(c3ccc4oc(C(=O)Nc5ccc6c(c5)OCO6)cc4c3)CC2)cc1,1.38
11,COC(=O)C1=C(C)NC2=C(C(=O)CC(c3ccccc3)C2)C1c1cc(C)sc1SC (stereo not given),0.927
12,Cc1cc(C)cc(-n2c(C)cc(C=C3SC(=Nc4ccc(Cl)cc4)NC3=O)c2C)c1,0.491
13,Cc1cccc(NS(=O)(=O)c2ccc3[nH]c(=O)ccc3c2)c1C,1.04
14,Cc1nc2ccc(Br)cc2c(O)c1CC(C)C,0.659
15,COc1ccc(-c2cc(-c3ccc(C)cc3)[nH]n2)c(O)c1,0.845
16,CCN(CC)c1ccc(C=C(C#N)c2nc3ccccc3[nH]2)o1,0.609
17,C1=C(c2ccccc2)CCN(c2ncnc3c2nc2n3CCCCC2)C1,0.916
18,CCOC(=O)N1CCN(c2ccc(C(F)(F)F)cn2)CC1,0.768
19,CCOC(=O)C1CCN(C(=O)c2cc(C(C)(C)C)nn2Cc2ccc(Cl)cc2Cl)CC1,0.788
20,CCOC(=O)c1c(CNCCN(CC)CC)n(C)c2cc(Br)c(OC(C)=O)cc12,0.606
21,COc1cc(C(Nc2ccccn2)c2ccc3cccnc3c2O)cc(Br)c1OC (stereo not given),0.907
22,CN(C)CCNc1c2c(nc3ccccc13)CCC2,0.953
23,CC(=O)c1ccc(OCCSc2nc3c(N)ncnc3[nH]2)cc1,1.51

row,SMILES,viability index
1,O=C(NN=Cc1ccc(Br)cc1)c1ccco1,0.744
2,COc1cc(-c2cc(C)c3c(OC)ccc(OC)c3n2)cc2c1OCCN(C(=O)CCn1nc(C)cc1C)C2,0.798
3,C[n+]1c(C=CNc2ccccc2)n(-c2ccccc2)c2ccc(Cl)cc21,0.667
4,O=C1CSC(=NN=Cc2cccnc2)N1c1ccccc1,0.962
5,CCOC(=O)c1c(S(=O)(=O)Nc2ccc(C(C)(C)C)cc2)c(-c2ccccc2)n(-c2ccccc2)c1C,0.664
6,CCCCCc1ccc(C(=O)N(C)CCCNc2ccnc3cc(Cl)ccc23)cc1,0.714
7,C=CCn1c(=N)n(CC(O)c2ccc(Cl)c(Cl)c2)c2ccccc21 (stereo not given),0.483
8,C[N+](C)(CC#Cc1ccccc1)CC#Cc1ccccc1,0.764
9,COc1ccc2c(c1)C(C)=CC(C)(C)N2C(=O)CSc1nnc(-c2ccc(C)cc2)o1,0.876
10,O=[N+]([O-])c1ccc(-c2ccc(C=NNc3nc(Nc4ccccc4)nc(Nc4ccccc4)n3)o2)cc1,0.626
11,CCOC(=O)c1c(C)oc2c1C(=O)c1ccccc1C2=O,0.902
12,COc1cccc(-c2ccc(O)c(CNC34CC5CC(CC(C5)C3)C4)c2)n1,0.577
13,CCCOC(=O)C1=C(C)NC2=C(C(=O)CC(c3ccc(OC)cc3)C2)C1c1cccc(F)c1 (stereo not given),0.898
14,O=C(Nc1ccccc1O)c1ccc(Cl)cc1,1.04
15,Cc1cccc2c1[nH]c1nc(SCC(C)C)nnc12,0.921
16,CCOC(=O)C1=C(C)N=c2sc(=Cc3ccccc3OCc3ccccc3)c(=O)n2C1c1ccccc1OC(C)C (stereo not given),0.788
17,Sc1nc2ccc3nsnc3c2[nH]1,0.827
18,CC(C)Cc1ccc(C=CC(=O)NC2CC2)cc1,0.626
19,COc1ccc(-c2csc3ncn(N)c(=O)c23)cc1,0.92
20,COc1ccc(OCCNC(=O)c2ccccc2Cl)cc1,0.897
21,CC1CCN(CCCNc2ccc(C(=O)Nc3ccc(C(F)(F)F)cc3)cc2[N+](=O)[O-])CC1,1.01
22,O=C(Cc1cccs1)N1CCN(c2ccccn2)CC1,1.06
23,O=C(Nc1cccnc1)c1cc(-c2cccnc2)nc2ccc(Cl)cc12,0.539

row,SMILES,viability index
1,O=C(NNS(=O)(=O)c1ccccc1[N+](=O)[O-])c1ccccc1,0.947
2,CCN(CC)C(CN1CCN(CC(C)C(=O)c2ccc(O)cc2)CC1)c1ccc(F)cc1 (stereo not given),0.791
3,Oc1ccc(Nc2ccnc3cc(Cl)ccc23)cc1,0.959
4,Cc1cc(Nc2ccc(C)c(C)c2)n2cnnc2n1,1.17
5,Cc1cc(Nc2cccc([N+](=O)[O-])c2)nc2cc(O)ccc12,0.819
6,C1CCC(CN2CCc3nc(N4CCCCC4)sc3C2)CC1,0.601
7,CCOC(=O)C1=C(C)NC2=C(C(=O)CC(c3ccc(OC)c(OC)c3)C2)C1c1cccc(C)c1 (stereo not given),0.68
8,N#Cc1c2c(c(N3CCN(C(c4ccccc4)c4ccccc4)CC3)n3c1nc1ccccc13)CCC2,1.23
9,Clc1ccccc1CN1CCc2nc(N3CCCCC3)sc2C1,0.798
10,CCOC(=O)C1=C(C)NC2=C(C(=O)CC(c3ccc(Cl)cc3)C2)C1c1ccc(Br)cc1 (stereo not given),0.725
11,O=C(Cc1c(F)cccc1Cl)Nc1cc(C(=O)N2CCN(Cc3ccccc3)CC2)ccc1N1CC2CC(C1)c1cccc(=O)n1C2 (stereo not given),0.324
12,CCOc1ccc(NC(=O)C(C)CSc2nc3ccc(NC(=O)CC)cc3s2)cc1 (stereo not given),1
13,COc1ccc2c(c1)-c1c(ssc1=S)C(C)(C)N2C(=O)c1cccc(Cl)c1,0.589
14,CC(C)(C)c1ccc(C(=O)N2CCCn3cccc3C2c2ccc(C(C)(C)C)cc2)cc1 (stereo not given),0.708
15,CC[n+]1c(C=Cc2ccc(Cl)cc2)ccc2ccccc21,0.738
16,CCOC(=O)c1cn(CC)c2cc(N3CCCCC3)c(F)cc2c1=O,0.573
17,CCOC(=O)c1cc(-c2ccc(C)cc2)n(CCC(=O)Nc2cccc(C(F)(F)F)c2)c1C,0.438
18,O=C(Cc1cccs1)N1CCC(n2c(Cc3ccc(F)cc3)nc3cccnc32)CC1,1.05
19,Fc1ccc(C2(CCCSc3nnc4c(n3)[nH]c3ccccc34)OCCO2)cc1,0.577
20,CSc1nnc(CCNC(=O)c2c(-c3ccccc3)noc2C)n1-c1ccc(F)cc1,0.865
21,O=Cc1c(OCc2ccc(Cl)cc2Cl)ccc2ccccc12,1.2
